Source: the GPR68 mutational scans of Howard et al. (2025)
Scores whose standard error is large were omitted. Not listed are two conditions whose scores span a narrow range. Names with del lack the residues named; names with ins carry added residues between the positions named. For some assays here: How much ogerin was present is not stated here.

B1: GPR68, Q15743 (parent)
chain: MGNITADNSSMSCTIDHTIHQTLAPVVYVTVLVVGFPANCLSLYFGYLQIKARNELGVYLCNLTVADLFYICSLPFWLQYVLQHDNWSHGDLSCQVCGILLYENIYISVGFLCCISVDRYLAVAHPFRFHQFRTLKAAVGVSVVIWAKELLTSIYFLMHEEVIEDENQHRVCFEHYPIQAWQRAINYYRFLVGFLFPICLLLASYQGILRAVRRSHGTQKSRKDQIQRLVLSTVVIFLACFLPYHVLLLVRSVWEASCDFAKGVFNAYHFSLLLTSFNCVADPVLYCFVSETTHRDLARLRGACLAFLTCSRTGRAREAYPLGAPEASGKSGAQGEEPELLTKLHPAFQTPNSPGSGGFPTGRLA

Experiments:
[1] = variants of: B1; assay: cAMP reporter score (Enrich2 score, wild type = 0); higher = more signal; HEK293T, FACS bins
[2] = variants of: B1; assay: surface expression score (Enrich2 score, wild type = 0); higher = more signal; HEK293T, FACS bins

In the case of H89del, the cAMP reporter score ([1]; pH 5.5) is reported as -1.73, the cAMP reporter score ([1]; pH 6) is reported as -1.28 and the cAMP reporter score ([1]; pH 6, modulator: ogerin) is reported as -1.29. It also gave a cAMP reporter score ([1]; pH 6.5, modulator: ogerin) of -1.66 and a surface expression score [2] of -1.72.

G98_I99insG showed a cAMP reporter score ([1]; pH 5.5) of -0.189, a cAMP reporter score ([1]; pH 6) of -2.73 and a cAMP reporter score ([1]; pH 6, modulator: ogerin) of -1.4. It also gave a cAMP reporter score ([1]; pH 6.5, modulator: ogerin) of -0.711 and a surface expression score [2] of -1.91.

In the case of L100_L101del, the cAMP reporter score ([1]; pH 5.5) is reported as -1.46, the cAMP reporter score ([1]; pH 6) is reported as -0.919 and the cAMP reporter score ([1]; pH 6, modulator: ogerin) is reported as -1.2. For the same variant, the cAMP reporter score ([1]; pH 6.5, modulator: ogerin) was -0.563 and the surface expression score [2] was -2.78.

With S88_H89insGSG the cAMP reporter score ([1]; pH 5.5) was -1.1, the cAMP reporter score ([1]; pH 6) was 0.114 and the cAMP reporter score ([1]; pH 6, modulator: ogerin) was -0.612. It also gave a cAMP reporter score ([1]; pH 6.5, modulator: ogerin) of -1.78 and a surface expression score [2] of 0.082.

Y102_E103insGS gave a cAMP reporter score ([1]; pH 5.5) of -0.64, a cAMP reporter score ([1]; pH 6) of -1.9 and a cAMP reporter score ([1]; pH 6, modulator: ogerin) of -2.83. It also gave a surface expression score [2] of -2.59.

Work on C94K yielded a cAMP reporter score ([1]; pH 5.5) of -1.76, a cAMP reporter score ([1]; pH 6) of -0.456 and a cAMP reporter score ([1]; pH 6, modulator: ogerin) of -1.29. It also gave a cAMP reporter score ([1]; pH 6.5, modulator: ogerin) of 1.01 and a surface expression score [2] of -0.554.

With C94S the cAMP reporter score ([1]; pH 5.5) was -1.58, the cAMP reporter score ([1]; pH 6) was -0.785 and the cAMP reporter score ([1]; pH 6.5, modulator: ogerin) was -0.272. It also gave a surface expression score [2] of -1.1.

With C94G the cAMP reporter score ([1]; pH 5.5) was -1.12, the cAMP reporter score ([1]; pH 6) was -0.477 and the cAMP reporter score ([1]; pH 6, modulator: ogerin) was -1. For the same variant, the cAMP reporter score ([1]; pH 6.5, modulator: ogerin) was -1.65.

For C94Y, the cAMP reporter score ([1]; pH 5.5) was -0.957, the cAMP reporter score ([1]; pH 6) was -0.675 and the cAMP reporter score ([1]; pH 6, modulator: ogerin) was -1.06. The cAMP reporter score ([1]; pH 6.5, modulator: ogerin) was -0.799 and the surface expression score [2] was -0.581.

For C94W, the cAMP reporter score ([1]; pH 5.5) was -1.1, the cAMP reporter score ([1]; pH 6) was -0.228 and the cAMP reporter score ([1]; pH 6, modulator: ogerin) was -1.5. For the same variant, the cAMP reporter score ([1]; pH 6.5, modulator: ogerin) was -2.35 and the surface expression score [2] was 0.

With C94A the cAMP reporter score ([1]; pH 5.5) was -0.766, the cAMP reporter score ([1]; pH 6.5, modulator: ogerin) was -1.34 and the surface expression score [2] was -0.225.

With C94H the cAMP reporter score ([1]; pH 5.5) was -0.19, the cAMP reporter score ([1]; pH 6.5, modulator: ogerin) was -0.11 and the surface expression score [2] was -0.683.

With C94P the cAMP reporter score ([1]; pH 5.5) was -0.733, the cAMP reporter score ([1]; pH 6) was -0.349 and the cAMP reporter score ([1]; pH 6, modulator: ogerin) was -1.97. It also gave a cAMP reporter score ([1]; pH 6.5, modulator: ogerin) of -1.72 and a surface expression score [2] of -1.51.

Work on C94E yielded a cAMP reporter score ([1]; pH 5.5) of -1.44, a cAMP reporter score ([1]; pH 6, modulator: ogerin) of -3.09 and a cAMP reporter score ([1]; pH 6.5, modulator: ogerin) of -2.12. For the same variant, the surface expression score [2] was -3.19.

With C94M the cAMP reporter score ([1]; pH 5.5) was -1.46, the cAMP reporter score ([1]; pH 6) was -1.46 and the cAMP reporter score ([1]; pH 6, modulator: ogerin) was -1.88. The cAMP reporter score ([1]; pH 6.5, modulator: ogerin) was -1.66 and the surface expression score [2] was -1.51.

Variant C94N has a cAMP reporter score ([1]; pH 5.5) of -3.38, a cAMP reporter score ([1]; pH 6, modulator: ogerin) of -2.72 and a cAMP reporter score ([1]; pH 6.5, modulator: ogerin) of -1.28. It also gave a surface expression score [2] of -0.425.

For C94Q, the cAMP reporter score ([1]; pH 5.5) was -1.75, the cAMP reporter score ([1]; pH 6) was -0.356 and the cAMP reporter score ([1]; pH 6, modulator: ogerin) was -1.38. The cAMP reporter score ([1]; pH 6.5, modulator: ogerin) was -1.4 and the surface expression score [2] was -1.13.

C94T showed a cAMP reporter score ([1]; pH 5.5) of -1.43, a cAMP reporter score ([1]; pH 6) of -0.612 and a cAMP reporter score ([1]; pH 6, modulator: ogerin) of -1.73. It also gave a cAMP reporter score ([1]; pH 6.5, modulator: ogerin) of -1.33 and a surface expression score [2] of -1.58.

C94F showed a cAMP reporter score ([1]; pH 5.5) of -1.89, a cAMP reporter score ([1]; pH 6) of -1.41 and a cAMP reporter score ([1]; pH 6, modulator: ogerin) of -1.74. It also gave a cAMP reporter score ([1]; pH 6.5, modulator: ogerin) of -1.67 and a surface expression score [2] of -0.911.

With C94R the cAMP reporter score ([1]; pH 5.5) was -1.74, the cAMP reporter score ([1]; pH 6) was -1.52 and the cAMP reporter score ([1]; pH 6, modulator: ogerin) was -1.77. For the same variant, the cAMP reporter score ([1]; pH 6.5, modulator: ogerin) was -1.37 and the surface expression score [2] was 0.203.

Work on C94I yielded a cAMP reporter score ([1]; pH 5.5) of -1.88, a cAMP reporter score ([1]; pH 6, modulator: ogerin) of -0.962 and a surface expression score [2] of -0.417.

For C94_V96del, the cAMP reporter score ([1]; pH 5.5) was -1.08, the cAMP reporter score ([1]; pH 6) was -0.589 and the cAMP reporter score ([1]; pH 6, modulator: ogerin) was -0.644. For the same variant, the cAMP reporter score ([1]; pH 6.5, modulator: ogerin) was -0.796.

Variant I107N has a cAMP reporter score ([1]; pH 5.5) of 0.196, a cAMP reporter score ([1]; pH 6) of 0.562 and a cAMP reporter score ([1]; pH 6, modulator: ogerin) of -1.53. It also gave a cAMP reporter score ([1]; pH 6.5, modulator: ogerin) of -1.52 and a surface expression score [2] of -1.4.

Work on I107C yielded a cAMP reporter score ([1]; pH 5.5) of 0.383, a cAMP reporter score ([1]; pH 6) of -1.74 and a cAMP reporter score ([1]; pH 6, modulator: ogerin) of -1.34. It also gave a cAMP reporter score ([1]; pH 6.5, modulator: ogerin) of -0.232 and a surface expression score [2] of -2.39.

I107K showed a cAMP reporter score ([1]; pH 5.5) of 0.565, a cAMP reporter score ([1]; pH 6, modulator: ogerin) of -1.28 and a cAMP reporter score ([1]; pH 6.5, modulator: ogerin) of -1.35.

Work on I107M yielded a cAMP reporter score ([1]; pH 5.5) of -0.547, a cAMP reporter score ([1]; pH 6) of -0.898 and a cAMP reporter score ([1]; pH 6, modulator: ogerin) of -1.6. The cAMP reporter score ([1]; pH 6.5, modulator: ogerin) was -1.08 and the surface expression score [2] was -0.444.

Work on I107D yielded a cAMP reporter score ([1]; pH 5.5) of -1.64, a cAMP reporter score ([1]; pH 6, modulator: ogerin) of -2.97 and a cAMP reporter score ([1]; pH 6.5, modulator: ogerin) of -0.68. It also gave a surface expression score [2] of -2.46.

Variant I107H has a cAMP reporter score ([1]; pH 5.5) of -0.482, a cAMP reporter score ([1]; pH 6) of 0.072 and a cAMP reporter score ([1]; pH 6.5, modulator: ogerin) of -0.431. For the same variant, the surface expression score [2] was -0.385.

Work on I107P yielded a cAMP reporter score ([1]; pH 5.5) of -0.41, a cAMP reporter score ([1]; pH 6) of -0.673 and a cAMP reporter score ([1]; pH 6, modulator: ogerin) of -0.653. The cAMP reporter score ([1]; pH 6.5, modulator: ogerin) was -0.431 and the surface expression score [2] was -1.44.

Variant I107L has a cAMP reporter score ([1]; pH 5.5) of -0.604, a cAMP reporter score ([1]; pH 6) of -1.65 and a cAMP reporter score ([1]; pH 6, modulator: ogerin) of -1.26. The cAMP reporter score ([1]; pH 6.5, modulator: ogerin) was -1.49 and the surface expression score [2] was -0.859.

Variant I107F has a cAMP reporter score ([1]; pH 5.5) of -0.77, a cAMP reporter score ([1]; pH 6) of -1.17 and a cAMP reporter score ([1]; pH 6.5, modulator: ogerin) of -0.398. For the same variant, the surface expression score [2] was -2.43.

For I107E, the cAMP reporter score ([1]; pH 5.5) was -1.72, the cAMP reporter score ([1]; pH 6, modulator: ogerin) was -0.299 and the cAMP reporter score ([1]; pH 6.5, modulator: ogerin) was -1.93.

E103T showed a cAMP reporter score ([1]; pH 5.5) of -0.171, a cAMP reporter score ([1]; pH 6) of -0.275 and a cAMP reporter score ([1]; pH 6, modulator: ogerin) of -1.46. For the same variant, the cAMP reporter score ([1]; pH 6.5, modulator: ogerin) was 0.406 and the surface expression score [2] was 2.47.
